For three substances, binding results are on record in paper PMC11708023.

Experiment [1] deals with T1, V5-CDK12 (Drosophila cyclin-dependent kinase 12 with N-terminal V5 tag) (Drosophila melanogaster) (UniProt Q9VP22).
T1 sequence: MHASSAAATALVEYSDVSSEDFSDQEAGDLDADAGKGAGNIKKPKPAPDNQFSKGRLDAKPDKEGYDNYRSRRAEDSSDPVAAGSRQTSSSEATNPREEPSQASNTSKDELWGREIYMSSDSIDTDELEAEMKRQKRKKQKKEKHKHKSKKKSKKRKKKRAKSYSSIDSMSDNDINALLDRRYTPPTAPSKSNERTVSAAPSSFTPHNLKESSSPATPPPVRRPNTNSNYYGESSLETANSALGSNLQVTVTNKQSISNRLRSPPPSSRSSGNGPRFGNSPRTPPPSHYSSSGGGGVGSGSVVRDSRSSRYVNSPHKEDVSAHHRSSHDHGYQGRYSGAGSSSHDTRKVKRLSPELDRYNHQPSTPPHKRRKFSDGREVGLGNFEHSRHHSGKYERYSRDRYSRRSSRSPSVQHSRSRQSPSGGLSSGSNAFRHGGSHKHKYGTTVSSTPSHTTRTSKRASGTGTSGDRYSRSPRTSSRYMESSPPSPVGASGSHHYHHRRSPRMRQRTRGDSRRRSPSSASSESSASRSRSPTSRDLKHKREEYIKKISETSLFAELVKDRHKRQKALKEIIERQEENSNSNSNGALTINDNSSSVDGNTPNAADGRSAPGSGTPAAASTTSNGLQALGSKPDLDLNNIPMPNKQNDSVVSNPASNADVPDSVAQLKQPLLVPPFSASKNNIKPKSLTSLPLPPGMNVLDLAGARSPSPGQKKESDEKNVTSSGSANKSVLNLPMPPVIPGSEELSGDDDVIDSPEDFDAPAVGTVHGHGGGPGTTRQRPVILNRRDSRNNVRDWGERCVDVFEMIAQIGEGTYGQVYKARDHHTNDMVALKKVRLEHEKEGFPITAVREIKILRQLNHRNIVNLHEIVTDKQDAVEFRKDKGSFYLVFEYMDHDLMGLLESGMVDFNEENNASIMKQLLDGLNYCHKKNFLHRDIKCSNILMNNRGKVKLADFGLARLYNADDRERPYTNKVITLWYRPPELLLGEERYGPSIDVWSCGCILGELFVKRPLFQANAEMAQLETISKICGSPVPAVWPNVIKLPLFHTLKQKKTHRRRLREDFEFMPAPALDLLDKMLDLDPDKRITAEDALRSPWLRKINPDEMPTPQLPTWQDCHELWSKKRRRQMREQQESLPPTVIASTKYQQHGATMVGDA
Put plainly: co-IP; S2 cells co-transfected with pMT-V5-CDK12 and B2-GFP, GFP or GFP-tagged B2 mutants; RIPA buffer (50 mM Tris-HCl pH 7.4, 150 mM NaCl, 5 mM MgCl2, 1 mM EDTA, 10% glycerol, 1% NP-40); anti-V5 or anti-GFP on protein A agarose, 4°C overnight; western blot. (In general: A western blot detects proteins with antibodies after separation by electrophoresis.)

In experiment [2] the target is T1, V5-CDK12 (Drosophila cyclin-dependent kinase 12 with N-terminal V5 tag) (Drosophila melanogaster). Put plainly: co-IP; Lysates of S2 cells co-expressing V5-CDK12 and B2-GFP pretreated with RNase A before co-IP with anti-V5; western blot.

Results are given in words; binding and its absence hold for the method and conditions named. Binding seen in cells or lysates may run through a third protein. Some results given as binding are weak or reduced against the parent protein; the word gives no strength. Sequences can lack the tags named with a protein.

In the case of “B2-mutant1-GFP (B2 with mutations in key dimerization sites K4A, E20A, D29A) (from UniProt P68831 1-106)”, in experiment [1], the binding entry was “no binding”.
On to “B2-GFP (FHV B2 with GFP fused to its C-terminus) (from UniProt P68831 1-106)”, for which the binding result in experiment [1] and in experiment [2] was “binds” in each case.
On to “B2-mutant3-GFP (B2 lacking the C-terminal 17 amino acids, ΔC17) (from UniProt P68831 1-89) (domain or fragment)”, for which the binding entry in experiment [1] was “binds”.
